Results reported in PubChem BioAssay AID485294 (National Center for Advancing Translational Sciences (NCATS), 2010).
About 150 (0.041%) of roughly 370,000 compounds were called active. The inconclusive results got no clear call from the source; some entries with a clear call stand among them for comparison. Calls follow the shape of the dose curve; as a rule, active = well fitted inhibition curve with a large enough effect; inconclusive = small, poorly fitted or top-dose-only effect; inactive = flat fitted curve, though single readings scatter. No potency is given beside an inconclusive call; the fits are too rough.

The compounds below were run against Beta-lactamase (Escherichia coli (strain K12)) (UniProt P00811) (assay: qHTS Inhibitors of AmpC Beta-Lactamase (assay with detergent)). Settings: AmpC hydrolysis of nitrocefin, absorbance 480 nm, 0.01% Triton; series mostly up to 114 µM.
Outline: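 AmpC (5.3 nM in the dispensed reagent) in 20 mM phosphate pH 7.0 with 0.01% (detergent screen) or 0.0001% Triton X-100 was preincubated with compounds for 15 min at room temperature. Nitrocefin was then added from an 800 uM solution, and hydrolysis was followed at 480 nm.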
Also: nearly all actives have a fitted effect of over 25% in size.
Potency is read from the fitted curve at half-maximal effect; tags tell the direction and shape of the fitted curve.

UniProt P00811, sequence (P00811 whole entry, looked up): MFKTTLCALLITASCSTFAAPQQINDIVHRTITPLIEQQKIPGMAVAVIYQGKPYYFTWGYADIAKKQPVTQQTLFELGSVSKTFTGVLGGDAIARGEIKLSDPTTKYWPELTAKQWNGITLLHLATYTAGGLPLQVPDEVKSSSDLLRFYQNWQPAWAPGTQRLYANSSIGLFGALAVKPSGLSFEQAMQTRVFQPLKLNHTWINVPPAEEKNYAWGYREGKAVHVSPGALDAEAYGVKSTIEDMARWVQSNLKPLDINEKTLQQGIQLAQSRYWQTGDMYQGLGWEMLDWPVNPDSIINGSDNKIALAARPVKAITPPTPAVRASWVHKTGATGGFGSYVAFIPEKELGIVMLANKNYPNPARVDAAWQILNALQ

**Q.** With `CN(CC(=O)NCCCN1CCOCC1)S(=O)(=O)c1ccc(F)cc1` as the compound, how does the Potency read?
**A.** The Potency was “inactive”.

**Q.** For `COc1ccccc1C(=O)NNC(=O)c1ccccc1F`, which Potency is on record?
**A.** The Potency was inconclusive [inhibitor, full curve].

**Q.** With `CCc1nonc1NC(=O)c1oc2cc(C)c(C)cc2c1C` as the compound, how does the Potency read?
**A.** The Potency was “inactive”.

**Q.** With `CCn1c(CCNC(=O)c2ccc(OC)c(OC)c2)nc2ccccc21` as the compound, how does the Potency read?
**A.** The Potency was inconclusive [inhibitor, partial curve, poor fit].

**Q.** With `O=C(CSc1ncccc1-c1nc2ccccc2[nH]1)Nc1ccc2c(c1)OCCO2` as the compound, how does the Potency read?
**A.** The Potency was “inactive”.

**Q.** With `CCC(=O)Nc1ccc(CC)cc1-c1nc2ccccc2n(CC(=O)c2ccc(OC)cc2)c1=O` as the compound, how does the Potency read?
**A.** The Potency was “inactive”.

**Q.** For `CN(CC(=O)Nc1c(Cl)cccc1Cl)C(=O)Cn1[nH]c(=O)c2ccccc2c1=O`, which Potency is on record?
**A.** The Potency was inconclusive [inhibitor, full curve, poor fit].

**Q.** With `Cc1cc(OCC(=O)Nc2ccccc2N2CCOCC2)c(C(C)C)cc1Cl` as the compound, how does the Potency read?
**A.** Its Potency is “inactive”.

**Q.** For `Cc1ccc(NC(=O)CN(C)C(=O)c2cc(-c3cccs3)nn2-c2ccccc2)cc1`, which Potency is on record?
**A.** The Potency was inconclusive [inhibitor, full curve, poor fit].

**Q.** `CCOC(=O)C1CCN(c2ccc(Cl)nn2)CC1` was tested. Which Potency did it give?
**A.** The Potency was “inactive”.

**Q.** How did the Potency turn out when `COc1ccc(-n2c(/C=C/c3ccc4c(c3)OCO4)nc3ccccc3c2=O)cc1` was run?
**A.** The Potency was inconclusive [inhibitor, partial curve].

**Q.** How did the Potency turn out when `COC(=O)C1C(O)=CC(=O)CC1C` (stereo unspecified) was run?
**A.** Its Potency is inconclusive [inhibitor, partial curve, poor fit].

**Q.** For `CCCc1cc(=O)[nH]c(SCCN2C(=O)c3ccccc3C2=O)n1`, which Potency is on record?
**A.** The Potency was inconclusive [inhibitor, full curve, poor fit].

**Q.** With `COc1cc(OC)cc(C(=O)NC(C)CCc2ccccc2)c1` (stereo unspecified) as the compound, how does the Potency read?
**A.** Its Potency is “inactive”.

**Q.** `CN(C)S(=O)(=O)c1ccc(Nc2ccc(-c3ccc4c(c3)OCCO4)nn2)cc1` was tested. Which Potency did it give?
**A.** The Potency was “inactive”.

**Q.** With `CCCCc1nc(Cl)c(C#N)c2c1CSC(C)(C)C2` as the compound, how does the Potency read?
**A.** Its Potency is inconclusive [inhibitor, full curve, poor fit].

**Q.** With `CCOc1ccccc1NC(=S)N1CCN(c2nc(-c3cccc(OC)c3)cs2)CC1` as the compound, how does the Potency read?
**A.** The Potency was “inactive”.

**Q.** With `COc1cccc(NC(=S)Nc2cccnc2)c1` as the compound, how does the Potency read?
**A.** Its Potency is “inactive”.

**Q.** `C/C(=N\Nc1ccc([N+](=O)[O-])cc1)c1ccc(N2CCOCC2)cc1` was tested. Which Potency did it give?
**A.** The Potency was “inactive”.

**Q.** With `O=C(CCCn1cnc([N+](=O)[O-])n1)Nc1cccc(Cl)c1Cl` as the compound, how does the Potency read?
**A.** Its Potency is inconclusive [inhibitor, full curve, poor fit].

**Q.** Which Potency does the source give for `O=C(N/N=C/c1cccc(OC(=O)c2ccco2)c1)c1ccc(F)cc1` here?
**A.** The Potency was inconclusive [inhibitor, single point].
